The densities may have been worked out from excess volumes.
Assay: xn = mol fraction of the nth substance listed
Conditions: 101 kPa

CN(CCO)CCO + CCCC[n+]1ccn(C)c1.F[B-](F)(F)F
mass density [kg/m3]
Conditions | x2 = 0.1002 | x2 = 0.1974 | x2 = 0.3 | x2 = 0.4001 | x2 = 0.4998 | x2 = 0.6 | x2 = 0.6997 | x2 = 0.7998 | x2 = 0.8999
293.15 K | 1066.2 | 1087.5 | 1107.6 | 1125.1 | 1141 | 1155.6 | 1169.1 | 1181.7 | –
303.15 K | 1058.5 | 1079.9 | – | 1117.5 | 1133.4 | 1148.1 | 1161.7 | 1174.4 | –
313.15 K | 1050.7 | 1072.1 | 1092.3 | 1109.9 | 1125.9 | 1140.6 | 1154.2 | 1167 | 1179.2
323.15 K | 1043.1 | – | 1084.7 | 1102.4 | 1118.4 | – | 1146.8 | 1159.6 | 1172
333.15 K | 1035.5 | – | 1077.1 | 1094.9 | 1111 | 1125.8 | 1139.5 | – | 1165.1
